# Test results published in PubChem BioAssay AID588855 (National Center for Advancing Translational Sciences (NCATS), 2011).
# The whole screen tested about 410,000 compounds, of which about 5,000 (1.2%) were called active. The inconclusive results got no clear call from the source; some entries with a clear call stand among them for comparison. Calls follow the shape of the dose curve; as a rule, active = well fitted inhibition curve with a large enough effect; inconclusive = small, poorly fitted or top-dose-only effect; inactive = no such curve, though single readings can be large or run the other way. A potency beside an inconclusive call is a rough fit, not a confirmed value.
# Assay: qHTS for Inhibitors of TGF-b; also: nearly all actives have a fitted effect of over 65% in size
# Details: HepG2 CAGA-GFP TGF-b/SMAD3 reporter, GFP fluorescence, 18 h, TGF-beta stimulated, 500 pg/mL final; series mostly up to 46.1 µM; activity, negative = inhibition: at the top concentration
# Procedure, shortened: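 GFP signal (ex488/em500-530) from TGF-beta-stimulated HEPG2 CAGA-GFP cells, 500 pg/mL final, 18 h at 37 degrees C in DMEM plus 1% FBS, normalized to unstimulated and DMSO-stimulated controls.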
# % is scaled to controls: 0 for no effect and ±100 for the full control effect; potency is read from the fitted curve at half-maximal effect; tags tell the direction and shape of the fitted curve.
Compound,Potency,"activity, negative = inhibition"
O=C(Cc1ccc(Cl)cc1)N/N=C1\CCCc2ccccc21,"inconclusive: 25.1 µM [inhibitor, single point]",
CN1CCN(C2=C(NS(=O)(=O)c3ccccc3)C(=O)c3ccccc3C2=O)CC1,"inconclusive: 25.1 µM [inhibitor, single point]",
Cc1cc(C)c(C#N)c(SCC(=O)Nc2ccccc2C(N)=O)n1,,inactive: 4.05%
Nc1ncc(-c2ccccc2)c(-c2ccc(O)cc2O)n1,"inconclusive: 17.8 µM [inhibitor, single point]",
COc1ccc(C)cc1NS(=O)(=O)c1ccccc1,,inactive: 1.13%
Cc1cccc(N2CCN(C(=O)c3cccn3-c3nnc(N4CCCCC4)s3)CC2)c1C,"inconclusive: 11.2 µM [inhibitor, partial curve, poor fit]",
COc1cccc(NC(=O)NCc2ccccc2Cl)c1,,inactive: 0%
Nc1cc([N+](=O)[O-])ccc1Nc1ccccc1,,inactive: -7.5%
Cc1ccccc1N/C(SCc1ccc(Cl)cc1)=C(/C#N)C(N)=O,"inconclusive: 22.4 µM [inhibitor, single point]",
COc1ccc(OCC(=O)N/N=C(\C)CC(=O)Nc2cccc([N+](=O)[O-])c2)cc1,,inactive: 4.25%
O=C(NC(=S)NC(=O)c1ccccc1F)c1ccccc1F,,inactive: -2.14%
O=C(CSc1nnc(-c2ccc(O)cc2)n1-c1ccccc1)CC(=O)Nc1ccccc1,"inconclusive: 35.5 µM [inhibitor, single point]",
C=CCOC(=O)C1=C(C)N=c2s/c(=C3\C(=O)N(CC(=O)O)c4ccccc43)c(=O)n2C1c1ccc(OC)cc1 (stereo unspecified),"inconclusive: 4.47 µM [inhibitor, full curve, poor fit]",
COc1cc(S(=O)(=O)N2CCN(C(=O)c3ccccc3)CC2)c(OC)cc1Br,,inactive: -3.17%
CCOC(=O)c1csc(NC(=O)c2ccc(S(=O)(=O)N(C)C)cc2)n1,,inactive: 11.7%
Cc1oc(-c2ccc(Cl)cc2)nc1CN1CCCC(C(=O)NCc2ccccn2)C1 (stereo unspecified),"inconclusive: 35.5 µM [inhibitor, single point]",
O=C(CN(Cc1ccco1)S(=O)(=O)c1cccs1)Nc1ccccc1C(F)(F)F,"inconclusive: 35.5 µM [inhibitor, single point]",
COc1ccc(CCNC(=O)CCc2cn(Cc3ccc(F)cc3)c3ccccc23)cc1OC,"inconclusive: 12.6 µM [inhibitor, partial curve, poor fit]",
N#Cc1ccc(NC(=O)Nc2ccc(Cl)cc2)cc1,"inconclusive: 7.08 µM [inhibitor, partial curve, poor fit]",
Cc1ccc(OCC(=O)NCc2ccccn2)cc1,"inconclusive: 22.4 µM [inhibitor, single point]",
Cc1cc(C)n2cc(CSc3ccc(Cl)cc3)nc2n1,,inactive: -17.5%
O=C1c2ccccc2C(=Cc2cccnc2)c2ccccc21,,inactive: -20%

Compound,Potency,"activity, negative = inhibition"
COc1ccc(-c2csc(NC(=O)c3ccoc3C)n2)cc1,"inconclusive: 12.6 µM [inhibitor, single point]",
CC(C)CC(=O)Nc1ccnn1C1CCN(C(=O)c2ccc(F)cc2Cl)CC1,,inactive: -3.63%
CC(C)c1ccc(NC(=O)CN2C(=O)CSc3ccc(S(=O)(=O)N4CCCC4)cc32)cc1,,inactive: -28.7%
O=C1c2ccccc2C(=O)N1CCc1nc2ccccc2c(=O)n1-c1ccccn1,,inactive: -3.85%
CN(C)c1ccc(-c2[nH][nH]c(=O)c2NC(=O)c2ccc3ccccc3n2)cc1,"inconclusive: 22.4 µM [inhibitor, partial curve, poor fit]",
O=C(N/N=C/c1cn(-c2ccccc2)nc1-c1cccnc1)c1ccc(F)cc1,,inactive: -2.42%
Cc1scc(CN2CCN(c3ccc(F)cc3)CC2)c1C,"inconclusive: 10 µM [inhibitor, partial curve, poor fit]",
Cc1ccc(C(=O)Nc2ccccc2N2CCCCC2)cc1[N+](=O)[O-],"inconclusive: 17.8 µM [inhibitor, partial curve, poor fit]",
Cc1ccccc1N1CCN(Cc2cc3c(cc2[N+](=O)[O-])OCO3)CC1,"inconclusive: 35.5 µM [inhibitor, single point]",
CN1CCCC1CCOC(C)(c1ccccc1)c1ccc(Cl)cc1 (stereo unspecified),"inconclusive: 35.5 µM [inhibitor, single point]",
COc1ccccc1N1CCN(S(=O)(=O)CCNC(=O)COc2ccccc2F)CC1,"inconclusive: 8.91 µM [inhibitor, partial curve, poor fit]",
C=CCSC1=N/C(=C\C=C\c2ccco2)C(=O)S1,"inconclusive: 5.62 µM [inhibitor, partial curve, poor fit]",
Cc1ccc(Cn2c(C3CCCN3c3nc(-c4cc(Cl)c(N)c(Cl)c4)cs3)nc3cc(C(=O)NCCCO)ccc32)cc1 (stereo unspecified),"inconclusive: 17.8 µM [inhibitor, single point]",
COC(=O)c1sccc1S(=O)(=O)N(CC(=O)Nc1ccc(C)c(F)c1)c1ccc(C)c(C)c1,"inconclusive: 17.8 µM [inhibitor, single point]",
COc1ccc(C)c2sc(N(CCCN(C)C)C(=O)c3ccc(S(=O)(=O)N4CCc5ccccc5C4)cc3)nc12,active: 5.01 µM,
COC(=O)c1ccccc1NC(=O)C1CC(=O)N(c2ccccc2)C1 (stereo unspecified),"inconclusive: 17.8 µM [inhibitor, single point]",
C[C@@H]1CC=C[C@H]2[C@H]1C(=O)N(Cc1ccccc1)[C@H]2c1ccc(F)c(/C=C/c2ccccc2)c1,"inconclusive: 15.8 µM [inhibitor, single point]",
Cc1onc(-c2ccccc2Cl)c1C(=O)Nc1cccc(-c2nc3ncccn3c2C)c1,"inconclusive: 15.8 µM [inhibitor, single point]",
CN(C)c1ccc(C(C(=O)NCC2CCCO2)N(C(=O)c2snc(C(N)=O)c2N)c2ccccc2)cc1 (stereo unspecified),,inactive: 9.05%
O=C(NCCCO)/C(=C\c1cn(-c2ccccc2)nc1-c1cccnc1)NC(=O)c1ccccc1,"inconclusive: 0.631 µM [inhibitor, partial curve, poor fit]",
O=C(O)CC1(CC(=O)Nc2ccc(Oc3cccc(C(F)(F)F)c3)nc2)CCCC1,"inconclusive: 17.8 µM [inhibitor, partial curve, poor fit]",
COc1ccc(CCNC(=O)c2ccc3c(c2)NC(=O)C(N2CCOCC2)S3)cc1OC (stereo unspecified),"inconclusive: 0.794 µM [inhibitor, full curve, poor fit]",

Compound,Potency,"activity, negative = inhibition"
COc1ccc(NC(=O)CSc2nnc(-c3cnccn3)n2C)cc1OC,,inactive: 11.7%
CSCCC(NS(=O)(=O)c1ccc(Cl)cc1)C(=O)OCC(=O)c1c(C)[nH]c2ccccc12 (stereo unspecified),"inconclusive: 28.2 µM [inhibitor, partial curve, poor fit]",
Cc1ccccc1C(=O)Nc1nnc(S(=O)(=O)N(C)c2ccc(Cl)cc2)s1,active: 8.91 µM,
O=c1c2cc(F)ccc2sn1-c1ccccc1,active: 11.2 µM,
Cc1ccc(NC(=O)Nc2cccc([N+](=O)[O-])c2)cc1F,"inconclusive: 15.8 µM [inhibitor, single point]",
O=C(CN1C2CCCC1CC(NC(=O)c1ccccc1)C2)Nc1ccccc1 (stereo unspecified),,inactive: 0%
CC[C@H](C)[C@H](NC(=O)c1ccc(Cl)cc1)C(=O)OCC(=O)c1ccc2c(c1)NC(=O)CO2,"inconclusive: 14.1 µM [inhibitor, partial curve, poor fit]",
NC1=NC[C@H](c2ccccc2)N1CCc1cc(C(F)(F)F)cc(C(F)(F)F)c1,active: 11.2 µM,
COc1ccc(S(=O)(=O)N2CCN(CCOc3ccccc3Cl)CC2)cc1OC,"inconclusive: 5.01 µM [inhibitor, full curve]",
CC(C)C(NC(=O)c1c(F)cccc1F)C(=O)N1CCN(S(=O)(=O)c2ccc(F)cc2)CC1 (stereo unspecified),,inactive: -0.0957%
CCc1sc(NS(C)(=O)=O)nc1-c1ccccc1,"inconclusive: 0.501 µM [inhibitor, full curve]",
CCOC(=O)c1ccc(Nc2nnc(C(C)(C)C)c(=O)[nH]2)cc1,"inconclusive: 14.1 µM [inhibitor, single point]",
O=C(/C=C/Nc1cccc(F)c1)c1ccco1,"inconclusive: 35.5 µM [inhibitor, single point]",
CC1C(=O)N(Cc2ccccc2F)c2ccccc2N1C(=O)c1c(F)cccc1F (stereo unspecified),"inconclusive: 35.5 µM [inhibitor, single point]",
Cc1ccc(NC2=C(CC(=O)O)C(c3ccccc3)N(c3ccc(C)cc3)C2=O)cc1 (stereo unspecified),"inconclusive: 35.5 µM [inhibitor, single point]",
COc1c2ccc(OCC/C(C)=C/C(=O)C=C(C)C)cc2nc2occc12,"inconclusive: 7.08 µM [inhibitor, partial curve, poor fit]",
NS(=O)(=O)c1ccc(CCNC(=O)c2ccc3nc4ccc(Cl)cc4c(=O)n3c2)cc1,"inconclusive: 35.5 µM [inhibitor, single point]",
COc1ccc(C(=O)C2CCN(C(=O)c3ccc(OC)cc3)CC2)cc1,,inactive: -25.1%
CCn1c(NC(C)=O)nc2ccccc21,"inconclusive: 8.91 µM [inhibitor, partial curve]",
COC(=O)CSc1nnc(CNc2ccc(Cl)cc2)n1Cc1ccccc1,"inconclusive: 35.5 µM [inhibitor, single point]",
Cc1cccc(NC(=O)c2ccc(Cl)c(S(=O)(=O)N3CCc4ccccc43)c2)n1,"inconclusive: 22.4 µM [inhibitor, single point]",
CCCNc1ncnc2c1c(-c1ccccc1)cn2-c1ccc(OCC)cc1,"inconclusive: 35.5 µM [inhibitor, single point]",
